Some of the results follow.
Legend:
Assay in all cases: glycan array binding signal (z-score within array); higher = stronger binding
Settings in all cases: glycan notation: IUPAC condensed, linker removed
[1] = target: Fuc(a1-2)[Gal(a1-3)]Gal(b1-4)GlcNAc(b1-2)Man(a1-3)[Fuc(a1-2)[Gal(a1-3)]Gal(b1-4)GlcNAc(b1-2)Man(a1-6)]Man(b1-4)GlcNAc(b1-4)GlcNAc
Summary of the method: (§1)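 From the Consortium for Functional Glycomics database, 3228 arrays were curated, keeping only those whose protein sequence was available. Binding is given as a within-array Z-score averaged across arrays sharing a protein sequence and across linkers. Negative Z-scores can be read as non-binding.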

[2] = target: Fuc(a1-2)[Gal(a1-3)]Gal(b1-4)GlcNAc(b1-2)Man(a1-3)[Fuc(a1-2)[Gal(a1-3)]Gal(b1-4)GlcNAc(b1-2)Man(a1-6)]Man(b1-4)GlcNAc(b1-4)[Fuc(a1-6)]GlcNAc
Summary of the method: as §1

[3] = target: Fuc(a1-2)[Gal(a1-3)]Gal(b1-4)GlcNAc(b1-3)GalNAc
Summary of the method: as §1

[4] = target: Fuc(a1-2)[Gal(a1-3)]Gal(b1-4)GlcNAc(b1-3)[Fuc(a1-2)[Gal(a1-3)]Gal(b1-4)GlcNAc(b1-6)]GalNAc
Summary of the method: as §1

[5] = target: Fuc(a1-2)[Gal(a1-3)]Gal(b1-4)GlcNAc(b1-6)GalNAc
Summary of the method: as §1

[6] = target: Fuc(a1-2)[Gal(a1-3)]Gal(b1-4)[Fuc(a1-3)]Glc
Summary of the method: as §1

[7] = target: Fuc(a1-2)[Gal(a1-3)]Gal(b1-4)[Fuc(a1-3)]GlcNAc
Summary of the method: as §1

[8] = target: Fuc(a1-2)[Gal(a1-3)]Gal(b1-4)[Fuc(a1-3)]GlcNAc(b1-3)GalNAc
Summary of the method: as §1

[9] = target: Fuc(a1-2)[Gal(a1-4)]Gal(b1-4)GlcNAc
Summary of the method: as §1

[10] = target: Fuc(a1-2)[GalNAc(a1-3)]Gal
Summary of the method: as §1

[11] = target: Fuc(a1-2)[GalNAc(a1-3)]Gal(b1-3)GalNAc(a1-3)[Fuc(a1-2)]Gal(b1-4)GlcNAc
Summary of the method: as §1

[12] = target: Fuc(a1-2)[GalNAc(a1-3)]Gal(b1-3)GalNAc(b1-3)Gal(a1-4)Gal(b1-4)Glc
Summary of the method: as §1

[13] = target: Fuc(a1-2)[GalNAc(a1-3)]Gal(b1-3)GlcNAc
Summary of the method: as §1

[14] = target: Fuc(a1-2)[GalNAc(a1-3)]Gal(b1-3)GlcNAc(b1-2)Man(a1-3)[Fuc(a1-2)[GalNAc(a1-3)]Gal(b1-3)GlcNAc(b1-2)Man(a1-6)]Man(b1-4)GlcNAc(b1-4)GlcNAc
Summary of the method: as §1

[15] = target: Fuc(a1-2)[GalNAc(a1-3)]Gal(b1-3)GlcNAc(b1-2)Man(a1-3)[Fuc(a1-2)[GalNAc(a1-3)]Gal(b1-3)GlcNAc(b1-2)Man(a1-6)]Man(b1-4)GlcNAc(b1-4)[Fuc(a1-6)]GlcNAc
Summary of the method: as §1

[16] = target: Fuc(a1-2)[GalNAc(a1-3)]Gal(b1-3)GlcNAc(b1-3)GalNAc
Summary of the method: as §1

[17] = target: Fuc(a1-2)[GalNAc(a1-3)]Gal(b1-3)GlcNAc(b1-6)GalNAc
Summary of the method: as §1

[18] = target: Fuc(a1-2)[GalNAc(a1-3)]Gal(b1-4)Glc
Summary of the method: as §1

[19] = target: Fuc(a1-2)[GalNAc(a1-3)]Gal(b1-4)GlcNAc
Summary of the method: as §1

[20] = target: Fuc(a1-2)[GalNAc(a1-3)]Gal(b1-4)GlcNAc(b1-2)Man
Summary of the method: as §1

[21] = target: Fuc(a1-2)[GalNAc(a1-3)]Gal(b1-4)GlcNAc(b1-2)Man(a1-3)[Fuc(a1-2)[GalNAc(a1-3)]Gal(b1-4)GlcNAc(b1-2)Man(a1-6)]Man(b1-4)GlcNAc(b1-4)GlcNAc
Summary of the method: as §1

[22] = target: Fuc(a1-2)[GalNAc(a1-3)]Gal(b1-4)GlcNAc(b1-2)Man(a1-3)[Fuc(a1-2)[GalNAc(a1-3)]Gal(b1-4)GlcNAc(b1-2)Man(a1-6)]Man(b1-4)GlcNAc(b1-4)[Fuc(a1-6)]GlcNAc
Summary of the method: as §1

[23] = target: Fuc(a1-2)[GalNAc(a1-3)]Gal(b1-4)GlcNAc(b1-3)Gal(b1-4)GlcNAc
Summary of the method: as §1

[24] = target: Fuc(a1-2)[GalNAc(a1-3)]Gal(b1-4)GlcNAc(b1-3)Gal(b1-4)GlcNAc(b1-3)Gal(b1-4)GlcNAc
Summary of the method: as §1

[25] = target: Fuc(a1-2)[GalNAc(a1-3)]Gal(b1-4)GlcNAc(b1-3)GalNAc
Summary of the method: as §1

[26] = target: Fuc(a1-2)[GalNAc(a1-3)]Gal(b1-4)GlcNAc(b1-3)[Fuc(a1-2)[GalNAc(a1-3)]Gal(b1-4)GlcNAc(b1-6)]GalNAc
Summary of the method: as §1

[27] = target: Fuc(a1-2)[GalNAc(a1-3)]Gal(b1-4)GlcNAc(b1-6)GalNAc
Summary of the method: as §1

[28] = target: Fuc(a1-2)[GalNAc(a1-3)]Gal(b1-4)[Fuc(a1-3)]GlcNAc
Summary of the method: as §1

[29] = target: Fuc(a1-2)[GalNAc(a1-3)]Gal(b1-4)[Fuc(a1-3)]GlcNAc(b1-3)GalNAc
Summary of the method: as §1

[30] = target: Fuc(a1-2)[GalNAc(a1-4)]Gal(b1-4)GlcNAc
Summary of the method: as §1

[31] = target: Fuc(a1-2)[GalNAc(b1-3)]Gal
Summary of the method: as §1

[32] = target: Fuc(a1-3)GlcNAc
Summary of the method: as §1

[33] = target: Fuc(a1-3)[Gal(b1-4)]Glc6S
Summary of the method: as §1

[34] = target: Fuc(a1-3)[Gal(b1-4)]GlcNAc
Summary of the method: as §1

[35] = target: Fuc(a1-3)[Gal(b1-4)]GlcNAc(b1-2)Man
Summary of the method: as §1

[36] = target: Fuc(a1-3)[Gal(b1-4)]GlcNAc(b1-2)Man(a1-3)[Fuc(a1-3)[Gal(b1-4)]GlcNAc(b1-2)Man(a1-6)]Man(b1-4)GlcNAc(b1-4)GlcNAc
Summary of the method: as §1

[37] = target: Fuc(a1-3)[Gal(b1-4)]GlcNAc(b1-2)Man(a1-3)[Fuc(a1-3)[Gal(b1-4)]GlcNAc(b1-2)Man(a1-6)]Man(b1-4)GlcNAc(b1-4)[Fuc(a1-6)]GlcNAc
Summary of the method: as §1

[38] = target: Fuc(a1-3)[Gal(b1-4)]GlcNAc(b1-3)Gal(b1-3)[Fuc(a1-4)]GlcNAc
Summary of the method: as §1

[39] = target: Fuc(a1-3)[Gal(b1-4)]GlcNAc(b1-3)Gal(b1-4)[Fuc(a1-3)]GlcNAc
Summary of the method: as §1

[40] = target: Fuc(a1-3)[Gal(b1-4)]GlcNAc(b1-3)Gal(b1-4)[Fuc(a1-3)]GlcNAc(b1-3)Gal(b1-4)[Fuc(a1-3)]GlcNAc
Summary of the method: as §1

[41] = target: Fuc(a1-3)[Gal(b1-4)]GlcNAc(b1-3)GalNAc
Summary of the method: as §1

[42] = target: Fuc(a1-3)[Gal(b1-4)]GlcNAc(b1-6)GalNAc
Summary of the method: as §1

[43] = target: Fuc(a1-3)[Gal(b1-4)]GlcNAc(b1-6)[Gal(b1-3)GlcNAc(b1-3)]Gal(b1-4)Glc
Summary of the method: as §1

[44] = target: Fuc(a1-3)[Gal(b1-4)]GlcNAc6S
Summary of the method: as §1

[45] = target: Fuc(a1-3)[Gal3S(b1-4)]Glc
Summary of the method: as §1

[46] = target: Fuc(a1-3)[Gal3S(b1-4)]GlcNAc
Summary of the method: as §1

[47] = target: Fuc(a1-3)[Gal3S(b1-4)]GlcNAc6S
Summary of the method: as §1

[48] = target: Fuc(a1-3)[GalNAc(b1-4)]GlcNAc
Summary of the method: as §1

[49] = target: Fuc(a1-3)[GalNAc(b1-4)]GlcNAc6S
Summary of the method: as §1

[50] = target: Fuc(a1-4)GlcNAc
Summary of the method: as §1

[51] = target: Fuc(b1-3)GlcNAc
Summary of the method: as §1

[52] = target: Gal(a1-2)Gal
Summary of the method: as §1

[53] = target: Gal(a1-3)Gal
Summary of the method: as §1

[54] = target: Gal(a1-3)Gal(b1-3)GlcNAc
Summary of the method: as §1

[55] = target: Gal(a1-3)Gal(b1-3)GlcNAc(b1-2)Man
Summary of the method: as §1

[56] = target: Gal(a1-3)Gal(b1-3)GlcNAc(b1-2)Man(a1-3)[Gal(a1-3)Gal(b1-3)GlcNAc(b1-2)Man(a1-6)]Man(b1-4)GlcNAc(b1-4)GlcNAc
Summary of the method: as §1

[57] = target: Gal(a1-3)Gal(b1-3)GlcNAc(b1-3)GalNAc
Summary of the method: as §1

[58] = target: Gal(a1-3)Gal(b1-3)GlcNAc(b1-6)GalNAc
Summary of the method: as §1

[59] = target: Gal(a1-3)Gal(b1-3)[Fuc(a1-4)]GlcNAc(b1-2)Man(a1-3)[Gal(a1-3)Gal(b1-3)[Fuc(a1-4)]GlcNAc(b1-2)Man(a1-6)]Man(b1-4)GlcNAc(b1-4)GlcNAc
Summary of the method: as §1

[60] = target: Gal(a1-3)Gal(b1-4)Glc
Summary of the method: as §1

B1: EPL1 (Trichoderma atroviride), A0PCX2 (protein)
chain: MQLSNLFKLALFTAAVSADTVSYDTGYDDASRSLTVVSCSDGTNGLITRYHWQTQGQIPRFPYIGGAQAVAGWNSPNCGTCWKLTYSGKTIYVLAIDHTAAGFNIGLDAMNALTNGNAVALGRVSATASQVAVSNCGL
glycan array binding signal (z-score) [1]: 0.098
glycan array binding signal (z-score) [2]: 0.306
glycan array binding signal (z-score) [3]: -0.548
glycan array binding signal (z-score) [4]: 0.418
glycan array binding signal (z-score) [5]: -0.313
glycan array binding signal (z-score) [6]: -0.166
glycan array binding signal (z-score) [7]: -0.242
glycan array binding signal (z-score) [8]: -0.384
glycan array binding signal (z-score) [9]: 0.195
glycan array binding signal (z-score) [10]: 0.127
glycan array binding signal (z-score) [11]: -0.071
glycan array binding signal (z-score) [12]: 0.036
glycan array binding signal (z-score) [13]: -0.19
glycan array binding signal (z-score) [14]: -0.449
glycan array binding signal (z-score) [15]: -0.127
glycan array binding signal (z-score) [16]: 0.168
glycan array binding signal (z-score) [17]: -0.414
glycan array binding signal (z-score) [18]: -0.489
glycan array binding signal (z-score) [19]: 0.016
glycan array binding signal (z-score) [20]: -0.166
glycan array binding signal (z-score) [21]: 0.028
glycan array binding signal (z-score) [22]: -0.37
glycan array binding signal (z-score) [23]: 0.527
glycan array binding signal (z-score) [24]: -0.032
glycan array binding signal (z-score) [25]: -0.147
glycan array binding signal (z-score) [26]: -0.319
glycan array binding signal (z-score) [27]: 0.07
glycan array binding signal (z-score) [28]: -0.307
glycan array binding signal (z-score) [29]: 21.1
glycan array binding signal (z-score) [30]: 0.107
glycan array binding signal (z-score) [31]: -0.54
glycan array binding signal (z-score) [32]: -0.052
glycan array binding signal (z-score) [33]: -0.166
glycan array binding signal (z-score) [34]: -0.397
glycan array binding signal (z-score) [35]: 0.185
glycan array binding signal (z-score) [36]: -0.258
glycan array binding signal (z-score) [37]: 0.451
glycan array binding signal (z-score) [38]: -0.027
glycan array binding signal (z-score) [39]: -0.051
glycan array binding signal (z-score) [40]: -0.19
glycan array binding signal (z-score) [41]: -0.022
glycan array binding signal (z-score) [42]: -0.122
glycan array binding signal (z-score) [43]: 0.15
glycan array binding signal (z-score) [44]: 0.291
glycan array binding signal (z-score) [45]: 0.585
glycan array binding signal (z-score) [46]: 0.108
glycan array binding signal (z-score) [47]: 0.255
glycan array binding signal (z-score) [48]: 0.203
glycan array binding signal (z-score) [49]: -0.245
glycan array binding signal (z-score) [50]: 3.1
glycan array binding signal (z-score) [51]: -0.156
glycan array binding signal (z-score) [52]: 0.255
glycan array binding signal (z-score) [53]: -0.422
glycan array binding signal (z-score) [54]: -0.491
glycan array binding signal (z-score) [55]: -0.149
glycan array binding signal (z-score) [56]: -0.058
glycan array binding signal (z-score) [57]: 0.164
glycan array binding signal (z-score) [58]: -0.018
glycan array binding signal (z-score) [59]: -0.19
glycan array binding signal (z-score) [60]: -0.454

Reference: the supplement of paper PMC8728848
